The list shows a part of the results.
system: T1, C. trachomatis L2/434/Bu expressing GFP (CTL2-GFP); set-up: species or system HeLa; C. trachomatis total inclusion area by high-content imaging, normalised to DMSO; settings: total inclusion area; 28.5 h, 10 µM; inhibitor
T1 construct: L2/434/Bu GFP intracellular growth in HeLa cells
Summary of the method: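 Following bulk GFP and resorufin fluorescence reads, infected cells were fixed, Hoechst-stained and imaged on a high-content platform. Inclusion total area and number per well served as growth proxies; nuclei counts indicated host viability. MICs were derived as for the fluorescence assay.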

Row | SMILES | % of control remaining
1 | COc1cccc(N2C(=O)CC(N3CCN(Cc4ccc5c(c4)OCO5)CC3)C2=O)c1 (stereo not shown) [CBK074411] | 91.4361
2 | NS(=O)(=O)c1ccc(NC(=S)Nc2cccc(C(=O)O)c2)cc1 [CBK266880] | 72.6366
3 | Cn1cccc1C(=O)N[C@H]1C[C@@H]2C(=O)N[C@H]3CCN(C(=O)C4CCCC4)[C@@H]3C(=O)N2C1 [CBK289272] | 86.7542
4 | Cc1csc(C(Cc2ccsc2)NC(=O)CCc2ccno2)n1 (stereo not shown) [CBK285099] | 85.8117
5 | CC1CN(Cc2cccc(CNc3nccnc3C#N)c2)CCO1 (stereo not shown) [CBK304736] | 93.4495
6 | c1cnc2[nH]c(C3CCNCC3)c(CN3CCCCCC3)c2c1 [CBK285057] | 99.9871
7 | O=C(Nc1ccc(C(F)(F)F)cc1)N1CCC(n2c(=O)[nH]c3ccccc32)CC1 [CBK149847] | 79.2407
8 | CC(=O)Nc1nnc(-c2ccc3c(c2)CCCC3)o1 [CBK287426] | 125.947
9 | Nc1ncc(-c2ccncc2)nc1NCCCN1CCOCC1 [CBK063631] | 91.7686
10 | O=c1c2cccnc2nc(SCCO)n1CC1CCCO1 (stereo not shown) [CBK306113] | 77.3501
11 | CC(C)CN1CCOC(CNC(=O)c2cc(O)nc3ccccc23)C1 (stereo not shown) [CBK297931] | 117.712
12 | Cc1cc(NC(=O)c2cc3ccccc3o2)nc2c1c(=O)oc1ccccc12 [CBK291256] | 102.866
13 | CCN1CCOC(CNc2ncnc3c2CCC3)C1 (stereo not shown) [CBK304811] | 40.5166
14 | CC1CCc2noc(C3CCCN(C(=O)c4ccco4)C3)c2C1 (stereo not shown) [CBK282865] | 92.3509
15 | CN1CCN(CCCNC(=O)N2CCN(Cc3ccccc3)CC2)CC1 [CBK155621] | 107.966
16 | CCOC(=O)C1CCN(S(=O)(=O)c2ccccc2C#N)CC1 [CBK051111] | 88.1269
17 | O=C(CC1SC(NC2CCCCC2)=NC1=O)Nc1cc(Cl)ccc1Cl (stereo not shown) [CBK059501] | 72.3758
18 | COc1ccc(Cl)cc1NC(=O)CN(c1cccc(C(C)=O)c1)S(C)(=O)=O [CBK267835] | 104.488
19 | Cn1nccc1CN1CCCC(COc2ccccc2F)C1 (stereo not shown) [CBK281663] | 103.856
20 | COc1ccc(Cn2c(=O)n(S(=O)(=O)c3ccc(C)cc3)c3ccccc32)cc1 [CBK106550] | 92.3593
21 | O=C(Nc1ccon1)c1nn(-c2ncccn2)c2ccccc12 [CBK048513] | 97.5874
22 | Cc1ccc(NC(=O)c2cnc3sccn3c2=O)cc1 [CBK287448] | 102.075
23 | COc1ccc(C2(NC(=O)Cn3ccnc3)CCCCC2)cc1 [CBK283661] | 111.51
24 | Cc1ccc(S(=O)(=O)CC(=O)N2CCCC3(CCN(C(=O)Cc4c[nH]c5ccccc45)C3)C2)cc1 (stereo not shown) [CBK131595] | 88.0687
25 | COc1ccc(OCCCN)c(C(=O)N2CCc3nc[nH]c(=O)c3C2)c1 [CBK307361] | 111.027
26 | C[C@H](NC(=O)Cn1cc(-c2ccc(CN3CCCC3)cc2)nn1)c1ccc(Br)cc1 [CBK167692] | 71.2926

Row | SMILES | % of control remaining
27 | O=C(Nc1cccc2nsnc12)c1cc(Cl)ccc1NS(=O)(=O)c1cccc2nsnc12 [CBK261129] | 101.804
28 | CCCN1CCN(Cc2cccc3c2ccn3S(=O)(=O)c2cccs2)CC1 [CBK116196T] | 81.1251
29 | Cc1cc(C)nc(N2CCC(CC(=O)N3CCN(C4CCCC4)CC3)CC2)n1 [CBK285957] | 107.628
30 | CC(Oc1ccc(Cl)cc1Cl)C(=O)O/N=C(\N)c1ccccn1 (stereo not shown) [CBK264673] | 99.8149
31 | Cn1c(=O)[nH]c(=O)c2c1nc(NC1CCCCC1)n2CCCc1ccccc1 [CBK269500] | 117.835
32 | COc1cccc(NCc2nnc(SCC(=O)O)n2C2CCCCC2)c1 [CBK297499] | 79.7131
33 | CCCCn1c(SC(C)C(N)=O)nc2cc(C(=O)OC)ccc2c1=O (stereo not shown) [CBK305877] | 37.1243
34 | Cc1ccccc1-c1ccccc1CC1(C(=O)N(C)C)CCN(C(=O)C2CCCCC2)CC1 [CBK285718] | 78.7236
35 | CCn1cc(C(=O)NN)c(=O)c2cc(F)c(N3CCSCC3)cc21 [CBK307148] | 92.9628
36 | Nc1nnc(CSc2cccc3cccnc23)o1 [CBK021397] | 92.4871
37 | CCOc1ccc(S(=O)(=O)N2CCN(Cc3cccc(F)c3C)CC2)c2cccnc12 [CBK062794] | 50.0481
38 | CCOC(=O)C1CCN(S(=O)(=O)c2ccccc2)CC1 [CBK051091] | 102.192
39 | CCCc1[nH]nc(O)c1CCc1ccccc1C(F)(F)F [CBK075081] | 61.5457
40 | CCn1cc(S(=O)(=O)NC2(c3ccccc3)CCCC2)cn1 [CBK282767] | 127.53
41 | CC(=O)N(CN1C(=O)CCC1=O)C(CC(C)C)C(=O)O (stereo not shown) [CBK286553] | 67.8123
42 | O=C(CSc1nnc(Cc2ccccc2)o1)N1c2ccccc2Sc2ccccc21 [CBK268008] | 102.139
43 | O=C(c1cccc(-c2ccc(F)cc2)c1)N1CC(O)C1 [CBK281499] | 102.908
44 | O=C(Cc1cccc(F)c1)N1CCOCC1 [CBK058928] | 95.2962
45 | COc1ccc(CN2CC(C(=O)O)CC2=O)cc1 (stereo not shown) [CBK267242] | 104.488
46 | CN(C)S(=O)(=O)c1cccc(C(=O)N(Cc2ccc(F)cc2)Cc2ccco2)c1 [CBK267579] | 106.739
47 | Cn1ccnc1CN1C[C@@H]2CCCN2C[C@@H]1Cc1ccccc1 [CBK283202] | 107.436
48 | Cc1csc(NS(=O)(=O)CC(C)C)n1 [CBK021434] | 61.8485
49 | O=C(NCCOc1ccc(F)cc1)c1cccc(-n2cccn2)c1 [CBK281596] | 124.035
50 | CCOC(=O)CCCCSc1c(CC)c(C)nc2ccccc12 [CBK153458T] | 86.5565
51 | CS(=O)(=O)N(CCc1ccccc1)CC(=O)O [CBK281244] | 76.1317
52 | COc1cc2c(cc1OC)C(C(=O)O)CC(=O)N2 (stereo not shown) [CBK218955] | 118.48

From paper PMC12040169 (PLOS Biology, 2025)
